Experimental data from PubChem BioAssay AID360 (National Center for Advancing Translational Sciences (NCATS), 2006).
Out of some 48,000 compounds screened, about 550 (1.1%) were called active. Inconclusive results (about 4%) are left out. No stated cut-off is given here; in the data, active means potency below about 15 µM; inconclusive means mostly about 16 µM to 33 µM; inactive means weaker than that. Some of the results follow.

molecular target: Lysosomal acid glucosylceramidase (Homo sapiens) (UniProt P04062); experiment: Glucocerebrosidase; details: purified enzyme, resorufin glucoside fluorescence (screen aimed at inhibitors), 20 min;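 further: the screen sought inhibitors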
Summary of the method: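 Normal human glucocerebrosidase (0.2 nM final) was assayed with resorufin β-D-glucopyranoside (30 uM final) in 50mM citric acid/KH2PO4, 10mM sodium taurocholate, 0.01% tween-20, pH 5.9. Compounds were titrated; fluorescence (Ex 548, Em 600) read after 20 min at RT.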
Potency means the concentration at half of the fitted maximal effect.

Sequence of UniProt P04062 (P04062 whole entry, looked up): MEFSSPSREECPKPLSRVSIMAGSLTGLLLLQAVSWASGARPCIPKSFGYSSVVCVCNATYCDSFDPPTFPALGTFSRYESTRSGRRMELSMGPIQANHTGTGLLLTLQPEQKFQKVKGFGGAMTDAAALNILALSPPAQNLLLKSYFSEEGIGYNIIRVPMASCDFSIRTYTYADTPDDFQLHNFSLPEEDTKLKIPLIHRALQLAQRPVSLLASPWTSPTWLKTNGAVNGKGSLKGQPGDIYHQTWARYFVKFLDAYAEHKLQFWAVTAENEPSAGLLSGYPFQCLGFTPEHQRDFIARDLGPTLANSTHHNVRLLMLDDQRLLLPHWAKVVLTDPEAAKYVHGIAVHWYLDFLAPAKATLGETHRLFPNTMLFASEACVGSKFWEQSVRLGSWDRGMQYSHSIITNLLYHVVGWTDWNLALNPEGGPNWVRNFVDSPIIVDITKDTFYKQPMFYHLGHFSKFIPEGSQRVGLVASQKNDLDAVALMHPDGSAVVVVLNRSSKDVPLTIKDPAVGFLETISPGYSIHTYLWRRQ

Potency, inactive:
Cc1ccccc1NC(=O)CSCCO > 76.9 µM
O=C(c1cc(-c2cccs2)on1)N1CCN(c2ccccc2)CC1 > 76.9 µM
C=CCn1c(SCc2nnc(-c3ccccc3)o2)nnc1C(O)c1ccccc1 (stereo unspecified) > 76.9 µM
Cc1cc(C(=O)NC(C)c2ccncc2)cs1 (stereo unspecified) > 76.9 µM
CCOC(=O)c1cc2occc2n1CC(=O)N1CCN(C(=O)c2ccco2)CC1 > 76.9 µM
CCn1c(SCc2nnc(-c3ccccc3)o2)nc2c1c(=O)n(C)c(=O)n2C > 76.9 µM
COc1ccc(OC)c(NC(=O)C2CCN(S(C)(=O)=O)CC2)c1 > 76.9 µM
COc1ccc(NC(=O)COC(=O)c2cnccn2)cc1Cl > 76.9 µM
Cc1ccc(-n2nnc3c(=O)oc4ccccc4c32)cc1 > 76.9 µM
N#Cc1c(C(F)(F)F)cc(-c2ccco2)nc1SCc1ccccn1 > 76.9 µM
COc1ccc(S(=O)(=O)N2CC(O)CC2C(=O)OCC(=O)Nc2ccc(Cl)cn2)cc1 (stereo unspecified) > 76.9 µM
Cc1cc(C(=O)NC(C)C)on1 > 76.9 µM
Cn1c(=O)c(=O)n(C)c2cc(S(=O)(=O)N3CCc4ccccc43)ccc21 > 76.9 µM
COc1ccc(-n2c(SCc3ccc(C#N)cc3)nnc2-c2ccccn2)cc1 > 76.9 µM
CCOc1ccccc1NS(=O)(=O)c1c(C)noc1C > 76.9 µM
C=C(C)Cn1c(N2CCC(Cc3ccccc3)CC2)nc2c1c(=O)[nH]c(=O)n2C > 76.9 µM
O=C(Nc1cccnc1N1CCOCC1)c1cc2ccccc2oc1=O > 76.9 µM
O=C(c1ccccc1F)N1CCN(Cc2cccc(Cl)c2)CC1 > 76.9 µM
Cn1c(C(=O)Nc2ccc3c(c2)OCO3)cc2sccc21 > 76.9 µM
CC(=O)c1cccc(-n2nnnc2SCC(=O)N2CCCC2)c1 > 76.9 µM
CCOc1ccc(OCC)c(NC(=O)CN(C)S(=O)(=O)c2cccc3nsnc23)c1 > 76.9 µM
COc1ccc2ccccc2c1/C=N/O > 76.9 µM
CCOC(=O)c1c(C)oc2ccc(OCC(N)=O)cc12 > 76.9 µM
COc1cc(C(=O)OCC(=O)Nc2c(F)c(F)c(F)c(F)c2F)cc(OC)c1OC > 76.9 µM
Cn1c(C(=O)O)c(CC(=O)Nc2ccccc2F)c2ccccc21 > 76.9 µM
C/C(N)=C(/C#N)C(=O)CSc1nnnn1-c1ccc(C)cc1C > 76.9 µM
Cc1cc(C(F)F)n2ncc(C(=O)NC3CCCCCC3)c2n1 > 76.9 µM
Nc1nc2nccc(-c3ccc(Cl)cc3)n2n1 > 76.9 µM
COCCN(CCOC)S(=O)(=O)c1ccc(OC)cc1 > 76.9 µM
CC(=O)c1cccc(NC(=O)N2CCCC2C(=O)Nc2c(C)cccc2C)c1 (stereo unspecified) > 76.9 µM
O=c1cc(NCc2ccco2)[nH]c(=O)n1-c1ccc(Br)cc1 > 76.9 µM
O=C(NCCCN1CCOCC1)c1cc(-c2ccc(Br)cc2)on1 > 76.9 µM
COc1c(F)c(F)c(C(=O)Nc2ccccc2N2CCN(C(=O)C(C)C)CC2)c(F)c1F > 76.9 µM
N#CCCn1cc(C(CC(=O)c2ccccc2)C(=O)O)c2ccccc21 (stereo unspecified) > 76.9 µM
COC(=O)c1ccc(OC)c(CSc2nnc(COc3ccc(Cl)cc3)o2)c1 > 76.9 µM
Cc1occc1-c1nnc(SCC(=O)Nc2ccccc2)n1C(C)c1ccccc1 (stereo unspecified) > 76.9 µM
CCc1c(C)nc2ncnn2c1N1CCCC(C(=O)NCc2ccc3c(c2)OCO3)C1 (stereo unspecified) > 76.9 µM
C[C@H](NC(=O)Nc1ccccc1F)C(=O)O > 76.9 µM
O=S(=O)(Cc1ccccc1)Nc1ccc(S(=O)(=O)NCC2CCCO2)cc1 (stereo unspecified) > 76.9 µM
CCOC(=O)C1C(=O)NC(N2CCc3ccccc32)=NC1c1ccccc1 (stereo unspecified) > 76.9 µM
Cc1nc(CC(=O)Nc2nc(-c3ccccc3)cs2)cs1 > 76.9 µM
CCCOC(=O)c1ccc(Oc2c(-c3ccc(OCC)cc3O)n[nH]c2C)cc1 > 76.9 µM
Cc1cccc(OCc2nnc(SCC(=O)N3CCc4ccccc43)n2C)c1 > 76.9 µM
COCCn1c(SCC(=O)Nc2ncc(Cl)c(C)c2Cl)nc2ccccc21 > 76.9 µM
CN1C(=O)c2ccccc2N(C)C1c1cccs1 (stereo unspecified) > 76.9 µM
O=C(Nn1cnc2ccccc2c1=O)C1CCCCC1 > 76.9 µM
O=C(CSc1nnc(-c2cccc(S(=O)(=O)N3CCCCC3)c2)o1)c1ccc[nH]1 > 76.9 µM
Cc1cc(Cl)ccc1OCC(=O)N1CC(C)CC(C)C1 (stereo unspecified) > 76.9 µM
CC(=O)c1ccccc1OCCn1nnc(-c2ccc(C)cc2)n1 > 76.9 µM
O=C(CN1CC(=O)Oc2ccccc21)NCc1ccco1 > 76.9 µM
CN(C)c1[nH]c(=O)c(C#N)c2c1CCN2Cc1ccccc1
Cc1nn(Cc2ccccc2Cl)c(C)c1C(=O)Nc1nnc(C2CC2)s1 > 76.9 µM
CCOC(=O)c1cc(-c2ccc(Cl)s2)nc2c1c(C)nn2C > 76.9 µM
CCOC(=O)C1CCN(S(=O)(=O)c2ccc(OCC(=O)OC)cc2)CC1 > 76.9 µM
O=C(Nc1ccc(S(=O)(=O)N2CCc3ccccc32)cc1)c1ccco1 > 76.9 µM
COCC(=O)Nc1nnc(C2CCCCC2)s1 > 76.9 µM
CCC(=O)Nc1cccc(NC(=O)CSc2nnc(C(C)C)n2CC)c1 > 76.9 µM
COC(=O)C1(CCSC)NC(c2ccccc2OC)C2C(=O)N(C)C(=O)C21 (stereo unspecified) > 76.9 µM
Cn1c(=O)c2c(ncn2CC(=O)Nc2cc(Cl)c(Cl)cc2Cl)n(C)c1=O > 76.9 µM
Cc1cc2c(c(=O)n1CC1CCCO1)C(c1ccco1)C(C#N)=C(N)O2 (stereo unspecified) > 76.9 µM
COCCNc1ncnc2nc[nH]c12 > 76.9 µM
Cc1nn(C)c(C)c1CN(C)C(=O)c1cc2n(n1)C(C(F)(F)F)CC(c1cccs1)N2 (stereo unspecified) > 76.9 µM
COc1ccccc1NC(=O)c1cn(C)c(=O)c2cc(OC)c(OC)cc12 > 76.9 µM
CC(C)C(NC(=O)c1ccccc1NC(=O)c1ccco1)C(=O)O (stereo unspecified) > 76.9 µM
Cc1cc(C(=O)CSc2nnnn2-c2ccc(O)cc2)c(C)n1Cc1ccc2c(c1)OCO2 > 76.9 µM
COc1ccc(NC(=O)CCCN2C(=O)C3C4C=CC(C4)C3C2=O)c(OC)c1 (stereo unspecified) > 76.9 µM
CCc1nc2scc(-c3ccccc3)c2c(=O)n1N > 76.9 µM
O=C(CN1CCN(S(=O)(=O)c2ccc(F)cc2)CC1)Nc1ccccc1F > 76.9 µM
CC(C)(C)NC(=O)COc1ccc(CNn2nnnc2N)cc1 > 76.9 µM
O=C1c2ccccc2C(=O)N1CCCc1nc(-c2cccnc2)no1 > 76.9 µM
COc1ccc(CN(C2CCCC2)S(=O)(=O)c2ccc(-n3cnnn3)c(OC)c2)cc1OC > 76.9 µM
CCCC(=O)Nc1ccc(NC(=O)c2ccccc2OC)cn1 > 76.9 µM
O=C(NCCN1CCN(c2ccccc2)CC1)c1cccn2c(=O)c3cc(Cl)ccc3nc12 > 76.9 µM
CCCCC(=O)Nc1ccc(N2CCN(C(=O)CC)CC2)cc1 > 76.9 µM
COCC(=O)Nc1nnc(SCC(=O)NCc2cccs2)s1 > 76.9 µM
CC(=O)c1ccc(NC(=O)N2CCN(c3cccc(Cl)c3)CC2)cc1 > 76.9 µM
O=C(CCCNS(=O)(=O)c1cccc2nsnc12)NCc1ccccc1 > 76.9 µM
O=S(=O)(Nc1ccc(N2CCOCC2)nn1)c1ccccc1 > 76.9 µM
Cc1cc(NC(=O)CSc2nnc(COc3ccccc3)o2)no1 > 76.9 µM
O=C(c1ccc2c(c1)N(Cc1ccc(F)cc1)C(=O)CS2)N1CCOCC1 > 76.9 µM
COc1ccc(C2CC3(CC(C)(C)NC(=O)N3)Oc3cc(O)ccc32)cc1 (stereo unspecified) > 76.9 µM
CCOC(=O)CCCCC(=O)c1[nH]c(=O)[nH]c1Cn1ccnc1 > 76.9 µM
CC(=O)c1ccc(Nc2ncnc3c2oc2ccccc23)cc1 > 76.9 µM
Cn1c(=O)[nH]c(=O)c2c1nc(N1CCOCC1)n2CC(O)COc1ccccc1 (stereo unspecified) > 76.9 µM
COC(=O)c1cc2oc(C)cc2n1CC(=O)Nc1cc(C)cc(C)c1
COc1ccc(CCNC(=O)CC2Nc3cc(C)c(C)cc3NC2=O)cc1OC (stereo unspecified) > 76.9 µM
O=C(CCN1C(=O)c2ccncc2C1=O)NCc1ccc(Cl)cc1 > 76.9 µM
O=C(c1oc2ccccc2c1N1CCCCC1)N1CCCCC1 > 76.9 µM
O=C(O)c1csc(Br)c1Br > 76.9 µM
COC(=O)CSc1nnnn1-c1cccc2ccccc12 > 76.9 µM
Cc1cc(C)n(CCCNC(=O)c2ccc(S(=O)(=O)NCc3ccco3)cc2)n1 > 76.9 µM
